Inconclusive results, whose numbers are uncertain, are shown with a selection of clear calls. Potencies of inconclusive entries are left out as doubtful fits. Calls of active or inactive are those of the source. The call rests on the fitted dose curve; in most records, active means well fitted curve in the direction sought with a large enough effect in the repeat runs; inconclusive means weak or mixed curves; inactive means no such curve, though single readings can be large; an effect the other way counts as inactive or inconclusive.
assay: qHTS RealTime-Glo MT Cell Viability Assay in HepG2 cells - 40 hour (AID 1224870); settings: RealTime-Glo luminescence; series mostly up to 76.8 µM; activity change, negative = cytotoxic: at the top concentration; further: nearly all actives have a fitted effect of over 50% in size
Method in brief: (§1)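 HepG2 cells mixed with RealTime-Glo MT reagents (NanoLuc plus cell-permeant prosubstrate) were seeded at 600 cells/well, incubated 5 h at 37 C/5% CO2, then pinned with compounds in DMSO; nonlytic luminescence tracked viability during 40 h treatment.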
Potency means the concentration at half of the fitted maximal effect; tags describe the fitted curve by direction and shape.

Compound	Potency
CCN(CC)CCCC(C)Nc1c2ccc(Cl)cc2nc2ccc(OC)cc12 (stereo not given)	active: 5.35 µM
COC(=O)C1=C(C)NC(C)=C(C(=O)OC(C)(C)CN(C)CCC(c2ccccc2)c2ccccc2)C1c1cccc([N+](=O)[O-])c1 (stereo not given)	inconclusive [falling, partial curve]
Nc1cccc2c(N)cccc12	inconclusive [phenotype inactive, single point]
CCCCCCCC/C=C\CCCCCCCCN	inconclusive [falling, single point]
Fc1ccc([C@@H]2CCNC[C@H]2COc2ccc3c(c2)OCO3)cc1	inconclusive [falling, single point]
Cc1[nH]cnc1C[C@H]1CCc2c(C)c3ccccc3n2C1=O	active: 42.6 µM
c1cc(N(CC2CO2)CC2CO2)ccc1Cc1ccc(N(CC2CO2)CC2CO2)cc1 (stereo not given)	inconclusive [falling, single point]
O=C(/C=C/c1ccc([N+](=O)[O-])cc1)c1ccccc1	inconclusive [falling, partial curve]
COC(=O)C1=C(C)NC(C)=C(C(=O)OCCN2CCN(C(c3ccccc3)c3ccccc3)CC2)C1c1cccc([N+](=O)[O-])c1 (stereo not given)	inconclusive [falling, single point]

assay: A CellTox Green Cytotoxicity Assay to monitor cytotoxicity in HEK293 cells - 40 hour (AID 1224871); settings: CellTox Green fluorescence; series mostly up to 76.8 µM; cytotoxicity increase: at the top concentration; further: nearly all actives have a fitted effect of over 45% in size; on cytotoxicity increase: on the % scale 0 is the no-effect control and ±100 the full control effect
Method in brief: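 Each value comes from one timepoint of a single continuous run in which HEK293 cells with CellTox Green were exposed to compound for up to 40 h at 37 C, dye fluorescence rising with cell death.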

Compound	cytotoxicity increase	Potency
CCOC(=O)O[C@]1(C(=O)OCCl)CC[C@H]2[C@@H]3CCC4=CC(=O)C=C[C@]4(C)[C@H]3[C@@H](O)C[C@@]21C	inactive: 3.74% [at 35.3 µM]	–
Fc1ccc([C@@H]2CCNC[C@H]2COc2ccc3c(c2)OCO3)cc1	–	inconclusive [activator, single point]
Cc1[nH]cnc1C[C@H]1CCc2c(C)c3ccccc3n2C1=O	–	active: 47.8 µM
C/C=C(C)/C=C/C=C(C)C	–	inconclusive [activator, single point]
O=C1C=CC(=O)N1c1cccc(N2C(=O)C=CC2=O)c1	–	inconclusive [activator, full curve, poor fit]
CCCCCCC[N+](CC)(CC)CCCCc1ccc(Cl)cc1	–	inconclusive [activator, single point]

assay: qHTS RealTime-Glo MT Cell Viability Assay in HEK293 cells - 16 hour (AID 1224872); settings: RealTime-Glo luminescence; series mostly up to 76.8 µM; activity change, negative = cytotoxicity: at the top concentration; further: nearly all actives have a fitted effect of over 50% in size
Method in brief: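 Quantitative high-throughput screen of the Tox21 10K library in HEK293: cells and RealTime-Glo reagents plated together, compound added at 5 h, luminescence monitored through 40 h at 37 C.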

Compound	Potency
Cc1ccc(C(C)(C)C)cc1	inconclusive [cytotoxic, single point]
CC1(C)CCC(C)(C)c2cc(NC(=O)c3ccc(C(=O)O)cc3)ccc21	inconclusive [cytotoxic, single point]
c1ccc(C[P+](c2ccccc2)(c2ccccc2)c2ccccc2)cc1	inconclusive [cytotoxic, full curve]
CCN(CC)c1ccc2c(c1)Oc1cc(N(CC)CC)ccc1C21OC(=O)c2ccccc21	inconclusive [cytotoxic, single point]
Cc1c(C(=O)NN2CCCCC2)nn(-c2ccc(Cl)cc2Cl)c1-c1ccc(Cl)cc1	inconclusive [cytotoxic, partial curve]
CCCc1nc2c(C)cc(-c3nc4ccccc4n3C)cc2n1Cc1ccc(-c2ccccc2C(=O)O)cc1	inconclusive [cytotoxic, partial curve]
Nc1cccc2c(N)cccc12	inconclusive [rising, partial curve, poor fit]
CCCCCCCC/C=C\CCCCCCCCN	active: 21.3 µM
CC1=CC(=O)CC(C)(C)C1	inconclusive [rising, partial curve]
Cc1[nH]cnc1C[C@H]1CCc2c(C)c3ccccc3n2C1=O	inconclusive [cytotoxic, partial curve]
C/C=C(C)/C=C/C=C(C)C	inconclusive [rising, single point]
O=S(=O)(c1ccc(OCc2ccccc2)cc1)c1ccccc1O	inconclusive [cytotoxic, partial curve]
O=C(/C=C/c1ccc([N+](=O)[O-])cc1)c1ccccc1	active: 24.6 µM
COC(=O)C1=C(C)NC(C)=C(C(=O)OCCN2CCN(C(c3ccccc3)c3ccccc3)CC2)C1c1cccc([N+](=O)[O-])c1 (stereo not given)	inconclusive [cytotoxic, partial curve]
CCCCCCC[N+](CC)(CC)CCCCc1ccc(Cl)cc1	inconclusive [cytotoxic, full curve]

assay: qHTS RealTime-Glo MT Cell Viability Assay in HepG2 cells - 8 hour (AID 1224873); settings: RealTime-Glo luminescence; series mostly up to 76.8 µM; viability change, negative = cytotoxic: at the top concentration; further: nearly all actives have a fitted effect of over 55% in size
Method in brief: as §1

Compound	Potency
CCN(CC)CCCC(C)Nc1c2ccc(Cl)cc2nc2ccc(OC)cc12 (stereo not given)	inconclusive [falling, partial curve]
CO[C@@]12[C@H](COC(N)=O)C3=C(C(=O)C(C)=C(N)C3=O)N1C[C@@H]1N[C@@H]12	active: 1.34 µM
CCCc1nc2c(C)cc(-c3nc4ccccc4n3C)cc2n1Cc1ccc(-c2ccccc2C(=O)O)cc1	inconclusive [falling, single point]
COC(=O)C1=C(C)NC(C)=C(C(=O)OC(C)(C)CN(C)CCC(c2ccccc2)c2ccccc2)C1c1cccc([N+](=O)[O-])c1 (stereo not given)	inconclusive [falling, partial curve]
Nc1cccc2c(N)cccc12	inconclusive [phenotype inactive, full curve]
CCCCCCCC/C=C\CCCCCCCCN	inconclusive [falling, partial curve]
Cc1[nH]cnc1C[C@H]1CCc2c(C)c3ccccc3n2C1=O	inconclusive [falling, partial curve, poor fit]
c1cc(N(CC2CO2)CC2CO2)ccc1Cc1ccc(N(CC2CO2)CC2CO2)cc1 (stereo not given)	inconclusive [falling, partial curve, poor fit]
O=C1C=CC(=O)N1c1cccc(N2C(=O)C=CC2=O)c1	active: 21.9 µM
COC(=O)C1=C(C)NC(C)=C(C(=O)OCCN2CCN(C(c3ccccc3)c3ccccc3)CC2)C1c1cccc([N+](=O)[O-])c1 (stereo not given)	inconclusive [falling, partial curve]

Reference: PubChem BioAssay (Tox21)
